Results as given in patent US20210221875A1 (Chugai, published 2021).
One block for each binder: values may come before it.

Key:
[1] = target: T1, Human aggrecan G1-IGD-G2 domain with Flag-tag on its C-terminus (human, UniProt P16112 in part); experiment: ELISA, biotin-labeled antigen on streptavidin plate, A450 of antigen well / non-coated well
T1 construct: used unlabelled as Biacore analyte; also called human aggrecan G1-IGD-G2-Flag; human Aggrecan G1G2 flag

[2] = target: T2, biotin-rabbit aggrecan G1-IGD-G2-3xFlag (rabbit, UniProt Q28670 in part, biotin on the N-terminal Avi-tag (BirA co-expression)); experiment: as above
T2 construct: three tandem Flag-tags at the C-terminus and Avi-tag at the N-terminus; also called biotinylated Avi-rabbit aggrecan G1-IGD-G2-3xFLAG; Avi RbG1G2 3FLAG

Native rabbit aggrecan = target: T3, Native rabbit aggrecan (rabbit); experiment: ELISA, native rabbit aggrecan coated at 10 nM, A450 of antigen well / non-coated well
T3 construct: crude cartilage extract supernatant; also called native rabbit aggrecan extracted from cartilage

[3] = target: T2, biotin-rabbit aggrecan G1-IGD-G2-3xFlag; experiment: SPR (Biacore T200), 37 C, pH 7.4, antibody captured, Avi RbG1G2 3Flag as analyte, 1:1 model;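 also: antibodies captured at roughly 200 RU on a CM4 or C1 chip through anti-human IgG Fc or Protein A/G, in sodium phosphate NaCl buffer with Tween 20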

S/N ratio [1]: 33
S/N ratio [2]: 37.8
S/N ratio (Native rabbit aggrecan): 2.39
B1: oA2R2#027un-G1T3dCH1dC (Fc fusion)
chain: QVQLVESGGGSGQPGGSLRLSCAASGFDLDYYAVGWFRQAPGKEREAVSCISVSGANISYVDSVKGRFTISRDNAKRTVDLSLDSLKPEDTAVYYCATTWGIHWCPLNPSDYRRWGRGTQVTVSS[left out - human IgG1 Fc with C220S Q419E (EU numbers)]
notes: anti-aggrecan VHH with Fc region

S/N ratio [1]: 29.9
S/N ratio [2]: 34.3
Kd [3]: 763 nM
koff [3]: 0.0187 s⁻¹
kon [3]: 24500 M⁻¹ s⁻¹
S/N ratio (Native rabbit aggrecan): 5.17
B2: oA2R2#041un-G1T3dCH1dC (Fc fusion)
chain: QVQLVESGGGSGQSGGSLTLSCAASGFDLDYYAVGWFRQAPGKEREGVACTSVSGANISYVDSVKGRFTIYRDNVKKTVELSLDSLKPEDTAVYYCATTWGIHWCPLIASEYRRWGRGTQVTVSS[left out - human IgG1 Fc with C220S Q419E (EU numbers)]
notes: as for B1

S/N ratio [1]: 29.9
S/N ratio [2]: 4.5
B3: hA2R3p.038-G1T3dCH1dCallohu (Fc fusion)
chain: QLQLVESGGGLVQAGGSLRLSCAASGRTFRTYAMGWFRQAPGKEREFVSSISGSGGSKIYADSVKGRFTISRDNAKDTVNLQMNSLKPEDTAVYYCAVARGYYGTMASDPGLYDYWGQGTQVTVSSEPKTPKPQAAA[left out - human IgG1 Fc with C220S Q419E (EU numbers)]
notes: as for B1

S/N ratio [1]: 42.7
S/N ratio [2]: 52.5
B4: hA2R1p.004-G1T3dCH1dCallohu (Fc fusion)
chain: QLQLVESGGGSGQPGGSLKLSCAASGFDLDYFAVGWFRQAPGKEREGVSCISVSGANISYADSVKGRFTIFRDSAKRTVDLSLDALKPEDTAVYYCATTWGIHWCPLSASEYRRWGRGTQVTVSLEPKTPKPQAAA[left out - human IgG1 Fc with C220S Q419E (EU numbers)]
notes: anti-aggrecan VHH fused with a heavy chain constant region (Fc region)

S/N ratio [1]: 47.6
S/N ratio [2]: 52.9
B5: oA2R1p.014-G1T3dCH1dCallohu (Fc fusion)
chain: QLQLVESGGGSGQPGGSLRLSCAASGFDLDYYAVGWFRQAPGKEREGIACTSVSGANTTYVDTVKGRFTISRDNAKRTVDLSLDSLKPEDTAVYYCATTWGIHWCPLSASEYRRWGRGTQVTVSLEPKTPKPQAAA[left out - human IgG1 Fc with C220S Q419E (EU numbers)]
notes: as for B1
